Test results: PMC7819943, “Rice protein-binding microarrays: a tool to detect cis-acting elements near promoter regions in rice”
Some of the results follow.

molecular target: T1, OsWOX13 (Oryza sativa, UniProt Q5QMM3 1-267); assay: protein-binding microarray (RPBM); PBS, 2% BSA, 51.3 ng/ul salmon testes DNA, 50 uM zinc acetate, 200 nM TF, 25 C, 1 h; high values mean tight binding; details: protein: recombinant; tags: N-terminal polyhistidine and DsRed monomer fusion (pET32a); label: CyDye5-dUTP incorporated in the synthesized complementary strand; 3' TTTTT single-stranded linker to array surface; dsDNA, one strand shown
T1 sequence: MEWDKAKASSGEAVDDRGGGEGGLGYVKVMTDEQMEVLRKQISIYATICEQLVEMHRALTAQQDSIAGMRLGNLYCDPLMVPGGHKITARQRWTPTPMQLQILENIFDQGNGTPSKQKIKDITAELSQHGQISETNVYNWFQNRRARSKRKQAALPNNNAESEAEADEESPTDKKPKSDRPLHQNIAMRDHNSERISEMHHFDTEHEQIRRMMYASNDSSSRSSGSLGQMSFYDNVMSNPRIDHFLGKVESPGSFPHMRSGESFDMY
In short: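 An Axon 4000B scanner gave the binding signal as per-feature fluorescence intensity in arbitrary units. This followed washing of a custom Agilent array that had been incubated for 1 h at 25 °C with 200 nM protein in PBS, 2% BSA, salmon testes DNA and 50 µM zinc acetate. The proteins were transcription factors fused at the N-terminus to polyhistidine and DsRed, expressed in E. coli BL21-CodonPlus and purified on Ni–NTA.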

Sequence	binding signal
TGTTAGTGATTTGTTGCACCGTCGATGTGTTTCCTGTAGTCGGAGTCACCTAGTGCAG	9560 fluorescence intensity (a.u.)
GTTTTGATTTATCATCGCTGATAAGTCATATTAGTATGTTCGGAGTCACCTAGTGCAG	24300 fluorescence intensity (a.u.)
TAAAATATAATCATATATTTAAATATAGTATATTTTCATCCGGAGTCACCTAGTGCAG	6160 fluorescence intensity (a.u.)
GGCAATTATAATTTCTAATTGCGGTGTGATTAGGTTAATTCGGAGTCACCTAGTGCAG	47200 fluorescence intensity (a.u.)
CAATAACAGATTGAGGCAACAAACCCGAACGGTATTGAAACGGAGTCACCTAGTGCAG	23000 fluorescence intensity (a.u.)
CATGTATGTGATTGGTGTCACGGTTTGGCCGCCGTCGCCACGGAGTCACCTAGTGCAG	35800 fluorescence intensity (a.u.)
CAGAGATTGAGAAGATGAAGAATGAGAATTTGATGCTCTCCGGAGTCACCTAGTGCAG	23100 fluorescence intensity (a.u.)
TGACTTTTGATGATGGATGATTCCTGCAAAGTTGCTTGATCGGAGTCACCTAGTGCAG	4230 fluorescence intensity (a.u.)
AATTAATAAATCTTAATGGACCTCACGCCGGTTCAAACCTCGGAGTCACCTAGTGCAG	3570 fluorescence intensity (a.u.)
TATTCGATTAAAACTCTCAATCATGTGTGGTTAACACAAACGGAGTCACCTAGTGCAG	7490 fluorescence intensity (a.u.)
CACTGTCAATTACACCGAAGCAGACAGAAGGTGTTCCATACGGAGTCACCTAGTGCAG	24200 fluorescence intensity (a.u.)
CGACCATCAATCAGTCGCTTGCTACGTCGCTTTCCTGATTCGGAGTCACCTAGTGCAG	12700 fluorescence intensity (a.u.)
TCGCAATCAAGCTCATCTTTCCTGAAGGAGTTTGGGCTCGCGGAGTCACCTAGTGCAG	5200 fluorescence intensity (a.u.)
ATGATTGGCGCTAATTACCGATTCTGCGTGATTTTAATAACGGAGTCACCTAGTGCAG	39800 fluorescence intensity (a.u.)
TTGATAAAATTGATAAATATATAGTTGCATTTAGTTTAGTCGGAGTCACCTAGTGCAG	25900 fluorescence intensity (a.u.)
CGGTTAGTTAGTTGATTAGTTATCTGCATGTTTCTGTTTTCGGAGTCACCTAGTGCAG	8750 fluorescence intensity (a.u.)
GAAATTAATCAACATCGTCAAACATTCCAAAACGAAGAGACGGAGTCACCTAGTGCAG	10800 fluorescence intensity (a.u.)
ATAAATAGACGTCGTGCTGCTAGCGTCTGATGAATGAACACGGAGTCACCTAGTGCAG	6980 fluorescence intensity (a.u.)
ATAGATAGATAGATCGGCGTGGGAGAAGACGACATCGCCGCGGAGTCACCTAGTGCAG	9180 fluorescence intensity (a.u.)
GCAGTCATAAACAATTAAAATAGTACTAATACTATTTCTACGGAGTCACCTAGTGCAG	3480 fluorescence intensity (a.u.)
ATAATTTAAATGCTAAAACGACAATTGAATTGAAACTAAACGGAGTCACCTAGTGCAG	6290 fluorescence intensity (a.u.)

Sequence	binding signal
AACCTTACTAAATTTTGGCAAATTAGTAATATTGCTAAAACGGAGTCACCTAGTGCAG	3690 fluorescence intensity (a.u.)
TGGCAATTAATATCCTAAGTTGATCACTTAATTAAGCCATCGGAGTCACCTAGTGCAG	12000 fluorescence intensity (a.u.)
ACGAGTGAAATTGACTTGAGGCGTCGAGTTGCCTTATTGCCGGAGTCACCTAGTGCAG	4980 fluorescence intensity (a.u.)
AGATAGACAGGAAGACAGATAGATAGATAGTTGTATGATCCGGAGTCACCTAGTGCAG	10200 fluorescence intensity (a.u.)
AATAACAGGTTGACAACGTTAAGTATGTTATTAACCACATCGGAGTCACCTAGTGCAG	4680 fluorescence intensity (a.u.)
TCTACTAGTAAATTTACGTTCTATCTTTAATACCTACTTCCGGAGTCACCTAGTGCAG	4090 fluorescence intensity (a.u.)
TTAATTAATCGATGAGAATCAATTTCATAATCATGGAGGTCGGAGTCACCTAGTGCAG	5880 fluorescence intensity (a.u.)
GAGGATTTGAAGCCTGATTATATTTTAATCTTGTTGTACACGGAGTCACCTAGTGCAG	12100 fluorescence intensity (a.u.)
TTAAAATTTCTCGTGTCAATTTCAACGCTAGCATTGGCATCGGAGTCACCTAGTGCAG	5900 fluorescence intensity (a.u.)
AAATATTGACAGATACAGCTACATGGGCATATGAGCTTAGCGGAGTCACCTAGTGCAG	30200 fluorescence intensity (a.u.)
CATGCAATTATGAGTTAGCTTAACTTCCTGAGTTCAATTGCGGAGTCACCTAGTGCAG	3220 fluorescence intensity (a.u.)
TTACATTTAATTATTTGATAAAATTTGTTCGTATGTCATTCGGAGTCACCTAGTGCAG	19700 fluorescence intensity (a.u.)
TTTGATAAACTAAACTATTTATAAAACAATAAATATCTCACGGAGTCACCTAGTGCAG	8190 fluorescence intensity (a.u.)
ATAATAATTTACTCCCGTCTGTCATTGGTGGTTTATATTGCGGAGTCACCTAGTGCAG	23900 fluorescence intensity (a.u.)
GCGCTATATCAATCAAAATACTGCCGCGGGATCTTGTTTGCGGAGTCACCTAGTGCAG	18800 fluorescence intensity (a.u.)
TTTCAATAGATTGAGGTTTAATATGTCTGTTTTGTGGTTCCGGAGTCACCTAGTGCAG	40500 fluorescence intensity (a.u.)
TTAGTATGTGATTAATTTAGTATTAATTATTTAACTATAACGGAGTCACCTAGTGCAG	19800 fluorescence intensity (a.u.)
TGATTGATGATTAAATAAAATTAGTACCTAAGCAGCCACGCGGAGTCACCTAGTGCAG	29700 fluorescence intensity (a.u.)
GCTTCCTGATAGAAATCGCAGATGACACTGTGCCCAAACGCGGAGTCACCTAGTGCAG	5020 fluorescence intensity (a.u.)
TGACGACGTGATTATACGCACCGAATGTCTGAATTCCATTCGGAGTCACCTAGTGCAG	5150 fluorescence intensity (a.u.)
AAATGCCTAAATTTGGCTCATGACTGCCATCGATGCTCTTCGGAGTCACCTAGTGCAG	3940 fluorescence intensity (a.u.)
